About 6,400 (1.6%) of roughly 410,000 compounds were called active. The shares of active, inactive and inconclusive entries below differ from those in the screen. Calls come from the whole dose curve; as a rule, active = well fitted inhibition curve with a large enough effect; inconclusive = small, poorly fitted or top-dose-only effect; inactive = no such curve, though single readings can be large or run the other way. Potencies beside an inconclusive call are fits to weak or partial responses and may not hold up.
Target: Glucagon-like peptide 1 receptor (Homo sapiens) (UniProt P43220)
Experiment: qHTS of GLP-1 Receptor Inverse Agonists (Inhibition Mode); note: nearly all actives have a fitted effect of over 55% in size
Conditions: HEK293 GLP-1R CRE-luciferase, luminescence, 24 h, GLP-1R form is constitutively active; series mostly up to 38.3 µM
Outline: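 GLP-1R inverse agonism mode: basal reporter luminescence in engineered HEK293 cells measured after one day of compound exposure at 37 deg C, with a 12 min room-temperature detection step.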
Potency is the fitted concentration of half-maximal effect; tags give direction and shape of the fitted curve.

UniProt P43220, sequence (P43220 whole entry, looked up): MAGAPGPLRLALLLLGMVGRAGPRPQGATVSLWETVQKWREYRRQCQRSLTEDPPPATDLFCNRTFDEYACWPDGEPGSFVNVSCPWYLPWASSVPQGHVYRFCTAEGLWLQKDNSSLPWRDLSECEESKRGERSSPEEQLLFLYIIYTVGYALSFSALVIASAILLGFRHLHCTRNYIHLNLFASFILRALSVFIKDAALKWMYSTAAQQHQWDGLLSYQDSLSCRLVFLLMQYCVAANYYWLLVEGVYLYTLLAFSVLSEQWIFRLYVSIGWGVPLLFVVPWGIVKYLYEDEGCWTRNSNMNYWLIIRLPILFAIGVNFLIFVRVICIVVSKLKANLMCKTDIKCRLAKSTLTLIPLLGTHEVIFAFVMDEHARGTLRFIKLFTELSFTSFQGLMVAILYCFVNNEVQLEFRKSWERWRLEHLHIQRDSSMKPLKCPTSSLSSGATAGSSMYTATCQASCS

Potency, inactive:
COC(=O)c1ccc(COC(=O)c2ccc(CS(=O)(=O)c3ccc(C)cc3)cc2)cc1
COc1cc(C(=S)N2CCCC2)ccc1OCc1ccccc1
COc1ccc(C(=O)c2oc3ccccc3c2N)cc1
Cc1ccccc1Cn1cc(NC(=O)c2noc3c2CC(C(C)(C)C)CC3)cn1 (stereo unspecified)
Cc1cnc(C(=O)Nc2ccccc2F)cn1
CCS(=O)(=O)N1CCN(c2ccccc2)CC1
N#CCc1ccc(OC(=O)c2ccncc2)cc1
COc1ccc(C(C(=O)NC(C)(C)C)n2c(=O)c(-c3ccco3)nc3ccccc32)cc1 (stereo unspecified)
O=C(OCc1ccccc1)c1ccccc1
C[C@@H]1CN(C(=O)c2nc3ccc(Cl)cn3c2CN[C@H]2CCCCNC2=O)C[C@H](C)O1

Potency, inconclusive:
COc1ccc(CNC(=O)CCSc2nc(-c3ccc4c(c3)OCO4)cc(C(F)(F)F)n2)cc1 2.24 µM [inhibitor, full curve, poor fit]
CCOc1ccc(NC(=O)c2cc(OC)nc3ccccc23)cc1 1 µM [inhibitor, full curve, poor fit]
Cc1ccc(C(C)NC(=O)c2cccs2)cc1C (stereo unspecified) 8.91 µM [inhibitor, partial curve, poor fit]
CN(C)CCN(C(=O)C1CCN(S(=O)(=O)c2cccs2)CC1)c1nc2ccc(F)cc2s1 11.2 µM [inhibitor, single point]
O=C(Nc1ccc(S(=O)(=O)N2CCOCC2)cc1)c1cc([N+](=O)[O-])ccc1Cl 31.6 µM [inhibitor, partial curve, poor fit]
Cn1c(C(=O)NCCc2c[nH]c3ccccc23)cc2sccc21 28.2 µM [inhibitor, single point]
CN(C(=O)c1ccc(NC(=O)Cc2ccc([N+](=O)[O-])cc2)cc1)C1CCCC1 28.2 µM [inhibitor, single point]
Cc1cccc(OCc2nnc(SCC(=O)N3c4ccccc4CCc4ccccc43)o2)c1 7.08 µM [inhibitor, partial curve, poor fit]
Cn1c(=NC(=O)C(C)(C)C)sc2cccc(F)c21 7.08 µM [inhibitor, partial curve, poor fit]
Cc1ccccc1NC(=O)/C(=C/c1ccco1)c1ccccc1 12.6 µM [inhibitor, partial curve, poor fit]
COC(=O)c1ccc(COc2ccc(C3C4=C(CCCC4=O)Nc4onc(C)c43)cc2)cc1 (stereo unspecified) 28.2 µM [inhibitor, single point]
O=C(Nc1ccc2c(c1)N(C1CCCC1)C(=O)c1ccccc1S2)c1ccccc1F 11.2 µM [inhibitor, partial curve, poor fit]
CCOc1ccc(-c2cccc(NC(=O)c3ccc(Br)o3)c2)nn1 14.1 µM [inhibitor, single point]
CSc1ccc(CN2CCC(Oc3ccc(C(=O)N4CCCC4)cc3)CC2)cc1 11.2 µM [inhibitor, partial curve, poor fit]
CCC(C)(C)n1nnnc1C(c1cccs1)N1CCc2ccccc21 (stereo unspecified) 31.6 µM [inhibitor, single point]
CCOC(=O)C1CCN(C(=O)CSc2nnc(-c3ccco3)n2-c2ccccc2)CC1 4.47 µM [inhibitor, partial curve, poor fit]
O=C(c1ccc(-c2ccccc2)cc1)C1CCCN(C(=O)c2ccncc2)C1 (stereo unspecified) 11.2 µM [inhibitor, partial curve, poor fit]
CC(C)N(Cc1ccccc1)C(=S)NC(=O)C1(C)CC1(Cl)Cl (stereo unspecified) 10 µM [inhibitor, partial curve, poor fit]
COc1ccc(CCC(=O)Nc2cccc(S(=O)(=O)N3CCCCCC3)c2)cc1OC 14.1 µM [inhibitor, partial curve, poor fit]
Cc1ccc(NC(=O)CCOc2ccccc2)cc1S(=O)(=O)Nc1ccccc1Cl 10 µM [inhibitor, partial curve, poor fit]
CC1CCN(S(=O)(=O)c2ccc3c(ccn3CCC(=O)NCc3ccccc3F)c2)CC1 20 µM [inhibitor, single point]
CCOC(=O)c1cc2occc2n1Cc1ccc(F)cc1 28.2 µM [inhibitor, single point]
Cc1nc(C(=O)Nc2cc(F)cc(Cl)c2)sc1C1(C)CC(c2ccccc2)=NO1 (stereo unspecified) 14.1 µM [inhibitor, single point]
Cc1ccc(OCc2cc(C(=O)NCC(C)(C)N3CCOCC3)no2)cc1C 5.62 µM [inhibitor, full curve, poor fit]
O=C(NCc1cccc(Cl)c1)C1Cc2c(-c3cccc(F)c3)ccnc2O1 (stereo unspecified) 28.2 µM [inhibitor, single point]
CCOc1ccc(CN2CCN(Cc3cc4ccccc4o3)CC2CCO)cc1 (stereo unspecified) 31.6 µM [inhibitor, single point]
Cc1ccccc1CN1CCC(CNC(=O)C2CCCN(c3ncnc4c3nc3n4CCCCC3)C2)CC1 (stereo unspecified) 28.2 µM [inhibitor, single point]
Cc1ccc(-n2nc3c(=O)n(CC(=O)NCCCc4ccccc4)nc(C)c3c2C)cc1 7.08 µM [inhibitor, partial curve]
COc1ccc(C(=S)N2CCN(c3ccccc3Cl)CC2)cc1OC 28.2 µM [inhibitor, single point]
Cc1ccc(C)c(N2CCN(C(=O)NCc3noc4ccc(C)cc34)CC2)c1 10 µM [inhibitor, partial curve, poor fit]
CC(=O)Nc1ccc(CN2CCc3c([nH]c4ccccc34)C2C(C)(C)C)cc1 (stereo unspecified) 28.2 µM [inhibitor, single point]
